The other results are listed elsewhere or left out.

Sequences and labels used below:
T1: UNK ZnF1-3 (human, UniProt Q9C0B0 31-174)
T1 sequence: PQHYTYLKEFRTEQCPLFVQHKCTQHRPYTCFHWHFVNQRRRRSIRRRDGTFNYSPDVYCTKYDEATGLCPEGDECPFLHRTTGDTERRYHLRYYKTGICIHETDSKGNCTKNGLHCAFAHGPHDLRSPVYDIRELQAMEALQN

B1: chr19:8913615:8913616:-_ENSMUSG00000071658_ENSMUST00000096259|mus_hu|mus_mus_mus_hu_False|48_58 (ssRNA)
RNA: GGGAGUUCUACAGUCCGACGAUCAGGGUACCAAAACCUUCUGCCUGAAAUGGGUGCCCCACCCAGUAGGGAGUUGCAGCUAAAAAUAUCCGUAGCAGAAGCAGUGACUAUACGAAAGGAGGCCCCUGGGGAGGGCCAGGCCAGCAACAGAGGAUUGAGCAUCA
B2: 57150429_57150635_147_5pUTR_ENSMUSG00000002658_ENSMUST00000002733|mouse|control|control (ssRNA)
RNA: GGGAGUUCUACAGUCCGACGAUCUCUGGCUGCUGGAGCCUAGAGCCGCCAUGGCCGUUGCUCAAGCUGCUCCCGGUCGGCCUGACGGGAUGAACUUCGUUGUGUCCCUCGGCUCCAGGAAAGGGAAGGCACCUUUCCUGGUUGCAACAGAGGAUUGAGCAUCA
B3: chr6:11883424:11883425:+_ENSMUSG00000029629_ENSMUST00000115511|mus_mus|FALSE|FALSE (ssRNA)
RNA: GGGAGUUCUACAGUCCGACGAUCCUUUUUCUUUCUAGGUCUUUCUCCGUUUUCUUCUUCUUCCUUCUUUUCCAUUUUAAUUAACUGUUUGUCUGAUGGCAUUAUUUCCUCUGUAGAAUUUUUAAGCUGUUCUUCUUUUACUUGCAACAGAGGAUUGAGCAUCA
B4: chr4:43046810:43046811:-_ENSMUSG00000036002_ENSMUST00000107956|mus_hu|FALSE|FALSE (ssRNA)
RNA: GGGAGUUCUACAGUCCGACGAUCAAAGAGGCGAUGGCGCAGGAAGGUCAUGUGGGCAGCAGGCAUGUCCGAGAAGUCAAAGGUCACAAGGAACAUCUUUACCACAGUCUGGUUGGGGUUAAAUAAGGUCACUUGGACGGUGCCCAACAGAGGAUUGAGCAUCA
B5: chr5:177634160:177634161:+_ENSG00000197451_ENST00000358344|hu_mus|FALSE|FALSE (ssRNA)
RNA: GGGAGUUCUACAGUCCGACGAUCACUGACAGUAUGAAAUUUCUUCUCCAGAACUUUCUUCACAGGAUCUUCCUCUUUAAAUGUAAUAAAAACAAAACCCCGUCUUUUGUUCAACUUGGGAUCUAUUGGAAGCUCAAUGGCCUCCAACAGAGGAUUGAGCAUCA
B6: chr7:19156472:19156473:-_ENSG00000122691_ENST00000242261|hu_hu|FALSE|FALSE (ssRNA)
RNA: GGGAGUUCUACAGUCCGACGAUCGCUGCAGCUUGCCAUCUUGGAGUCCAGCUCGUCGCUCUGGAGGACCUGGUAGAGGAAGUCGAUGUACCUGGCCGCCAGCUUGAGGGUCUGAAUCUUGCUCAGCUUGUCCGAGGGCAGCGUCAACAGAGGAUUGAGCAUCA
B7: chr14:90870812:90870813:+_ENSG00000198668_ENST00000553542|hu_mus|FALSE|FALSE (ssRNA)
RNA: GGGAGUUCUACAGUCCGACGAUCAUCAAUAUCUGCUUCUCUGAUCAUUUCAUCUACUUCUUCAUCUGUUAGCUUUUCUCCUAAGUUUGUCAUGACGUGGCGCAGUUCUGCCGCACUGAUGUAACCAUUCCCAUCCUUGUCAAACAACAGAGGAUUGAGCAUCA
B8: chr6:40197388:40197389:+_ENSMUSG00000057716_ENSMUST00000061740|mus_mus|mus_mus_mus_hu_False|28_68 (ssRNA)
RNA: GGGAGUUCUACAGUCCGACGAUCGAGACACUGGGGUGGAUUUAUUCCACCUCUGUUUGGGUGCUAGUAAGAUAGAUUGUUAUUUUGGGAUUCAUGGCCUUGAAUAUCAAGAGGAAAAGGAAGAGGAUGGAAAGAGUCAAGAGUCAACAGAGGAUUGAGCAUCA
B9: chr2:27806210:27806211:+_ENSMUSG00000026837_ENSMUST00000028280|mus_hu|motif|central (ssRNA)
RNA: GGGAGUUCUACAGUCCGACGAUCUGUGGUUUCUUUGGCAGCUUCCACGGGCUUCUUGCUGGGGGUGGGCUCCUUCCCGGGGUCUUCGGGGUCUUCGUAGUAGGGGUAUUCGUAGUAAUAGGUCUCACCCUCGCCGUCUCCUUCCAACAGAGGAUUGAGCAUCA
B10: chr17:60770872:60770873:+_ENSG00000011028_ENST00000303375|hu_hu|hu_hu_hu_mus_True|68_98 (ssRNA)
RNA: GGGAGUUCUACAGUCCGACGAUCUCUUUAAAAAAAAUUCCUUUUUUACAAACAAUAAUAGCACAUUAUUUAAAAAAAGAACUACAAUAGAGGGUCCGCUUUGAGUUUUUGUUCACAUCGUCCUGCACUGGGACACGGGGACUGCAACAGAGGAUUGAGCAUCA
B11: chr4:107908409:107908410:-_ENSMUSG00000034636_ENSMUST00000043616|mus_hu|motif|central (ssRNA)
RNA: GGGAGUUCUACAGUCCGACGAUCACUGUAGAAUCUCAAGCACAAGUAAGUUCAAACACUGAAAGAUGUGGAAAAUUUCCGGAAAGGCAAUGAUAAAGGAAGAGACCCUUCUUGACUCAUAAGUUUAAAAUCACAAGACAAAUUCAACAGAGGAUUGAGCAUCA
B12: chrX:71549762:71549763:+_ENSMUSG00000019087_ENSMUST00000019231|mus_mus|mus_mus_mus_hu_False|58_78 (ssRNA)
RNA: GGGAGUUCUACAGUCCGACGAUCAAACCCGUGUACUUCUUAUUGUUAGCACAACAUUCCCCCCCAACGAUAACGACAGCUAAGCUGGACAGACAGUUAAGUAGUACUUCCACACUCCCAAACUCAGGGAGCCCUAUAACCUUACAACAGAGGAUUGAGCAUCA
B13: chr7:128503047:128503048:+_ENSG00000128524_ENST00000249289|hu_mus|motif|central (ssRNA)
RNA: GGGAGUUCUACAGUCCGACGAUCGGUGGUAUCCUUCUCCACUACCAGGAAAUUAGGGUGGCGGUUCUUGUUUAGCUCCCCGGUGCCGCCCAACAGGAAACCAGUCACCGUGUCCUCGUCUCCAAUCACCGCGAUUAGCUUACCCAACAGAGGAUUGAGCAUCA
B14: chr7:140404665:140404666:+_ENSG00000090266_ENST00000247866|hu_hu|hu_hu_hu_mus_False|98_108 (ssRNA)
RNA: GGGAGUUCUACAGUCCGACGAUCUGCGUACAGAGUGAGGCUGAGUCUACAGUGUCAGUCCUCGUCAUCAGGAGGGAUUCCCAGUUCUUCAUCUGUCCACUGUGAAGGAUCUGGAUAUGAAAAGUGACCCAGCACAGCAUCCGACAACAGAGGAUUGAGCAUCA

This assay deals with T1, UNK ZnF1-3. Put plainly: nsRBNS (natural sequence RNA bind-n-seq); RBNS binding buffer (assumed for nsRBNS): 25 mM Tris pH 7.5, 150 mM KCl, 3 mM MgCl2, 0.01% Triton X-100, 500 ug/ml BSA, 20 U/ml SUPERase-In, 4 C; UNK is unkempt and MSI1 is Musashi-1; names of the RNAs are library labels; protein concentration not given here; high values mean tight binding.
Consider B1, for which the binding signal worked out at 1.53 enrichment R.

In turn, B2 displayed a binding signal of 0.367 enrichment R.

Molecule B3 returned a binding signal of 0.21 enrichment R.

The molecule B4 had a binding signal of 1.51 enrichment R.

B5 came in with a binding signal of 1.13 enrichment R.

The molecule B6 gave a binding signal of 0.922 enrichment R.

Turning to B7, the binding signal is 0.507 enrichment R.

The molecule B8 returned a binding signal of 1.66 enrichment R.

As to B9, the binding signal amounted to 0.622 enrichment R.

B10 gave a binding signal of 1.25 enrichment R.

Molecule B11 displayed a binding signal of 1.21 enrichment R.

For the molecule B12, the binding signal amounted to 1.26 enrichment R.

B13 returned a binding signal of 0.526 enrichment R.

The molecule B14 came in with a binding signal of 0.883 enrichment R.

The values are drawn from paper PMC12136788.
